The supplement of paper PMC11417369
± gives the standard deviation of the averaged measurements. Some of the results follow.

test system: PfAP2-I AP2 domain 3 (GST-tagged); assay: gcPBM binding intensity (ln(normalized median fluorescence intensity)); higher = stronger DNA binding
Summary of the method: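 The binding buffer was 1× PBS containing 1% milk, 0.2 mg/ml BSA, 0.5% salmon testes DNA and 0.03% Triton X-100. In it, GST-tagged P. falciparum DNA-binding domains expressed in E. coli were applied for 1 h to an Agilent 4 × 180k array of primer-extended double-stranded 36-bp intergenic genomic probes plus negative controls. Binding intensity, read with Alexa488 anti-GST antibody and a 488 nm scan, is the highest Masliner-normalised natural-log median intensity across replicate spots of either probe orientation.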

Sequence	gcPBM binding intensity (ln)
AATGTATAATTATAATGTACAAATAATATATAATAT [XGTACX_site5407]	7.88 ± 0.52
TATATTAAACATATATGTACATATTTTTTCTGAACA [XGTACX_site5390]	7.7 ± 0.26
ACCAAATCATATATAGCACACAAATTCTTTATTATT [CACACA_site8911]	8.66 ± 0.092
AATATTTTCTGTAATACTTCTTTTCAATTTATTTCG [CACACA_negctrl_site1390]	7.67 ± 0.71
AATATCAATGATGTTACATGCAAGAGAATCCACAAA [TGCATGCA_site678]	8.3 ± 0.79
TATTGTTTTTTTGATTTTTTTTTTTTTTTTAATGAA [CACACA_negctrl_site824]	7.43 ± 0.6
ACGTAAAATTATTATTGTACATGTAAATAATTTGGA [XGTACX_site8154]	7.74 ± 0.34
AAAATCAAAAAAACAAGTACAAATGTGGACTTTTTT [XGTACX_site5363]	7.64 ± 0.58
TGTTCTATGGTTTGTAGTACTTTAATAAATATAAAT [XGTACX_site7823]	7.9 ± 0.31
TCAAAAAAAAAAAAAAAAAAAAAAAAAAAAAAAAAA [CACACA_negctrl_site1753]	8.54 ± 1
AATAAGCTCACGTGTCGTACATTTTTTAAAACAACC [XGTACX_site4707]	8.05 ± 0.45
TATATATATATATATGTGCACTGAAAGAATTATACA [GTGCAC_site9586]	10.7 ± 0.13
GCTCAATTTTTGGGTACACACAAATGTATAAGAATA [CACACA_site7178]	8.15 ± 0.17
TTTTTCTAATTATGCACACATATCAAAATATTCAAT [CACACA_site2749]	10.4 ± 0.58
TATTTATTTTATATATGTACATAATATATTCTTATA [XGTACX_site1619]	7.81 ± 0.28
ATATATATAGAAATATGTACGAAAAAAATATCACAT [XGTACX_site746]	8.44 ± 0.81
ATTTATGGAAAAAGAACACACAATCAAACAAAAATA [CACACA_site3707]	8.01 ± 0.57
TTTTTTTTTTTTTGGTGTACCATAGGTAAAATGATT [XGTACX_site8020]	8.27 ± 0.59
ATATAAATGAATATATGTACATATATATATATATAT [XGTACX_site6361]	9.12 ± 0.52
TGACCTGTTCAGGTAACACACATATAAACCCATACA [CACACA_site31]	7.88 ± 0.43
ATGCTATAGGATCTTACACACATTTTTGTAAAAAAA [CACACA_site1868]	7.79 ± 0.52
ACACAATAAACATTATGTACATATAATGTTCTGTGT [XGTACX_site3381]	7.54 ± 0.49

Sequence	gcPBM binding intensity (ln)
AATGATAATCTATTATGTACACATATATTCTTATGT [XGTACX_site4148]	7.54 ± 0.3
CTATATATAAAATATTGTACTTATTTTTATTACATC [XGTACX_site3963]	7.72 ± 0.46
TATACATATGTATGCACACATACATACCCATATAAT [CACACA_site5842]	8.79 ± 0.014
TATTTAAAATATTAAATTTGTAAAGTTCGAGGGAAG [GTGCAC_negctrl_site337]	7.83 ± 0.33
TTTTCTCAATTTTGGTGTACTTTTTTCTTAACACAT [XGTACX_site8918]	8.15 ± 0.48
GAAAAAAAAATATCTTGTACTTACATAACTATTGGT [XGTACX_site5326]	7.61 ± 0.5
AAAGGTTTATCTGATACACACATAAGTGATCAGGTT [CACACA_site6233]	7.44 ± 0.67
TAAATTAAAAAACATAAACTATTGGAAACGCATTGA [CACACA_negctrl_site935]	7.57 ± 0.64
GGAATAGTGATATATACACACAAATACATATTTATA [CACACA_site6183]	7.87 ± 0.68
AATTAATAAGAAAGGTGTACAGAAAAAAAAAAATAT [XGTACX_site2106]	8.46 ± 0.43
AAAAGAAATGACAAATTGGATAGATAATAGGGGGTA [GTGCAC_negctrl_site262]	8.12 ± 0.57
AATTTTGATATATATTGTACGCATTTTTAAATGCCA [XGTACX_site7694]	8.17 ± 0.44
TTTAATAAAATTCTAGTGCAAAAAGGAAAAAACAAA [GTGCAC_site9642]	10.4 ± 0.47
AAAAAAAAAAAAAATACACACATATATAAATAAATA [CACACA_site6459]	8.09 ± 0.46
TTCTTAATTTAAAATTGTACTTAAGTAATACTTATG [XGTACX_site3928]	7.68 ± 0.52
GAAGTTTTTTAAAGATGTACTTTTTAAAAATAATGT [XGTACX_site1975]	7.93 ± 0.37
TTATTTACTTATTGCACACATATAAAATATATTTAT [CACACA_site3101]	10.6 ± 0.76
ATAATAAAACTCAAAGTGCATTAGAATAATTGTAAA	10.7 ± 0.49
ATTCATAAATATATTTGTACATATTATATATAAATA [XGTACX_site1907]	7.85 ± 0.31
AAGAACTCATTAATAATGTAATATTTTATAATTTAG [CACACA_negctrl_site321]	7.13 ± 0.5
TACAATTGTAAAGGCGCACACATATATATATATATA [CACACA_site1392]	9.51 ± 0.13
GATATTATTGCATATTTACACACGTACTAATTTAAA [CACACA_site8231]	8.8 ± 0.47
